Source: PubChem BioAssay AID686978 (National Center for Advancing Translational Sciences (NCATS), 2013)
Hit rate of the full screen: of about 420,000 compounds, about 64,000 (15%) were called active. The inconclusive results got no clear call from the source; some entries with a clear call stand among them for comparison. The call rests on the fitted dose curve; in most records, active means well fitted inhibition curve with a large enough effect; inconclusive means small, poorly fitted or top-dose-only effect; inactive means flat fitted curve, though single readings scatter. Potencies of inconclusive entries are left out as doubtful fits.

Assay: qHTS for Inhibitors of human tyrosyl-DNA phosphodiesterase 1 (TDP1): qHTS in cells in absence of CPT; further: nearly all actives have a fitted effect of over 55% in size
Conditions: DT40 Tdp1-/- hTDP1 cells, no CPT, ATP luminescence, 48 h; activity change, negative = growth inhibition: at 46.2 µM (top of the series) unless noted
How it was run: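 Growth of hTDP1-complemented DT40 Tdp1-knockout cells is measured by ATP luminescence after at least 48 hr compound exposure at 37 °C, with DMSO substituting for the 20 nM CPT used in the parallel screen.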
On the % scale 0 is the no-effect control and ±100 the full control effect; potency means the concentration at half of the fitted maximal effect; tags describe the fitted curve by direction and shape.

Row | Compound | Potency | activity change, negative = growth inhibition
1 | COc1ccc(CNC(=O)c2sc(=O)n(Cc3ccc(C)cc3)c2C)cc1OC | active: 16.4 µM | –
2 | Nc1c(C(=O)NCCN2CCOCC2)c2nc3ccccc3nc2n1Cc1ccco1 | active: 14.6 µM | –
3 | COc1ccccc1CN1CCN(C(=O)COc2ccc3ccccc3c2)CC1 | inactive | –
4 | O=C(O)c1cccc2nc3ccccc3nc12 | inconclusive [inhibitor, single point] | –
5 | CC(c1ccccc1)n1cncc1C(=O)N1CCCC1=O (stereo unspecified) | inactive | –
6 | COc1cc2cc(c1Cl)N(C)C(=O)CC(OC(=O)C(C)N(C)C(C)=O)C1(C)OC1C(C)C1CC(O)(NC(=O)O1)C(OC)C=CC=C(C)C2 (stereo unspecified) | active: 0.13 µM | –
7 | O=C(N/N=C/c1c(O)n(CCc2ccccc2)c(=O)[nH]c1=O)c1ccncc1 | – | inconclusive: -21% [inhibitor]
8 | Cc1nc2ccc(Cl)cc2c(=O)n1-c1ccc([N+](=O)[O-])cc1 | inactive | –
9 | C[N+]1(C)[C@@H]2CC[C@H]1CC(OC(=O)C(c1ccccc1)c1ccccc1)C2 (stereo partly specified) | inconclusive [inhibitor, single point] | –
10 | CC1(C(O)(C#CCN2CCCCC2)c2ccccc2)CCCC1 (stereo unspecified) | inconclusive [inhibitor, single point] | –
11 | COc1cc(CC(C)N)cc(OC)c1OC (stereo unspecified) | inactive | –
12 | C[N+](C)(C)CC#CCOC(=O)Nc1cccc(Cl)c1 | inconclusive [inhibitor, single point] | –
13 | O=C(CNC(=O)c1ccc(Br)cc1)Nc1ccc(Br)cc1C(=O)c1ccccc1 | inconclusive [inhibitor, single point] | –
14 | COc1ccc(CN2CCN(C(=O)COc3ccccc3)CC2)c(OC)c1 | inconclusive [inhibitor, partial curve, poor fit] | –
15 | COC(=O)C1=C(c2cccc(C#N)c2)C[C@@H]2CC[C@H]1N2C(=O)NCc1cc(C)oc1C(F)(F)F | inconclusive [inhibitor, single point] | –
16 | Cc1cccc(C2CC(=O)Oc3c2c(=O)oc2ccccc32)c1 (stereo unspecified) | inactive | –
17 | CC(C)c1ccc(OCC(=O)Nc2cc(-c3nc4ncccc4o3)ccc2Cl)cc1 | active: 6.51 µM | –
18 | CNC(=O)Nc1ccc(C(=O)N/N=C\C23CC[C@@H](O)CC2(O)CC[C@@H]2[C@@H]3CCC3(C)C(C4=CC(=O)OC4)CCC23O)cc1 (stereo partly specified) | inactive | –
19 | Cc1cccc(C)c1N1CCN(c2c(C)cccc2C)CC1 | inactive | –
20 | O=C1NC(=O)C(CCc2ccncc2)(CCc2ccncc2)C(=O)N1CCc1ccc(F)cc1 | inconclusive [inhibitor, single point] | –
21 | O=C(c1ccc(Cl)cc1)C1CCCN(Cc2ccc3nonc3c2)C1 (stereo unspecified) | inconclusive [inhibitor, single point] | –
22 | C[C@]12CCC3C(CC[C@H]4C[C@@H](O)CC[C@]34C)C1CC[C@@H]2O (stereo partly specified) | inactive | –
23 | CC1COC2N=C(N[N+](=O)[O-])NC2O1 (stereo unspecified) | inconclusive [inhibitor, full curve, poor fit] | –

Row | Compound | Potency | activity change, negative = growth inhibition
24 | Fc1ccc(CCNCc2cccc(Cl)c2)cc1 | inconclusive [inhibitor, single point] | –
25 | CCOC(=O)C1=C(C)OC(N)=C(C(=O)OCC)C12C(=O)Nc1ccc(Br)cc12 (stereo unspecified) | inconclusive [inhibitor, single point] | –
26 | COc1ccc(C(=O)NCCn2cc(SC(C)c3ccccc3)c3ccccc32)cc1OC (stereo unspecified) | active: 11.6 µM | –
27 | CC(=O)Oc1ccc(/C=C/c2cc(OC(C)=O)cc(OC(C)=O)c2)cc1 | active: 11.6 µM | –
28 | O=C(C(=O)N1CCOCC1)c1cn(Cc2ccccc2Cl)c2ccccc12 | inconclusive [inhibitor, single point] | –
29 | O=c1c([N+](=O)[O-])cn(O)cc1[N+](=O)[O-] | inactive | –
30 | O=C(Cc1ccccc1)N1CCN(Cc2ccc(Cl)cc2)CC1 | inconclusive [inhibitor, partial curve] | –
31 | Cc1ccc2c(c1)C(c1ccccc1)NCC(=O)N2 (stereo unspecified) | inconclusive [inhibitor, single point] | –
32 | COc1cc([C@@H]2c3cc4c(cc3[C@@H](OC)[C@H]3COC(=O)[C@H]23)OCO4)cc(OC)c1O | active: 1.3 µM | –
33 | CCOC(=O)c1c(C)n(CC(O)CN2CCOCC2)c2cc(Br)c(OC)cc12 (stereo unspecified) | inconclusive [inhibitor, single point] | –
34 | COc1ccccc1N1CCN(Cc2cccc(OC)c2O)CC1 | inactive | –
35 | CN(C)c1ccc(/C=C2\CC3C4CC=C5CC(O)CCC5(C)C4CCC3(C)C2=O)cc1 (stereo unspecified) | inconclusive [inhibitor, partial curve] | –
36 | O=c1[nH]c(=S)n(C2CC2)c(O)c1/C=N/Nc1ccccc1 | inactive | –
37 | O=c1[nH]c(=O)n(-c2ccc(F)cc2)c(O)c1C=Nc1ccccc1N1CCCC1 | inconclusive [inhibitor, partial curve] | –
38 | COc1cc(CN2CCN(C(=O)COc3ccccc3)CC2)cc(OC)c1OC | inactive | –
39 | CCCC[N+]12C3C[C@H](C4[C@H](O)[C@]5(C[C@@H]41)c1ccccc1N(C)[C@@H]35)[C@H](CC)[C@H]2O (stereo partly specified) | inconclusive [inhibitor, partial curve, poor fit] | –
40 | O=C(NCc1cccnc1)C1CCN(S(=O)(=O)c2cc([N+](=O)[O-])ccc2Cl)CC1 | active: 18.4 µM | –
41 | CCOc1ccc(CN(CCc2ccc3c(c2)OCO3)Cc2cccc(C)c2)cc1 | active: 13 µM | –
42 | CC(C)(O)C(Cl)(Cl)Cl | inconclusive [inhibitor, single point] | –
43 | O=C(c1ccc(C(F)(F)F)cc1)C1CCCN(C2CCSCC2)C1 (stereo unspecified) | inconclusive [inhibitor, single point] | –
44 | C[N+]12CCC(CC1)C(C(O)(c1cccc(Cl)c1)c1cccc(Cl)c1)C2 (stereo unspecified) | inconclusive [inhibitor, single point] | –
45 | CCc1ccc2c(c1)Sc1ccccc1CC2N1CCN(C)CC1 (stereo unspecified) | active: 18.4 µM | –
46 | CCN1CCC(NCC2CCCCC2)CC1 | inconclusive [inhibitor, single point] | –
